Experimental data taken from the supplement of paper PMC3334620.
In all, about 33,000 sequences were measured (“E-score (-0.5 to 0.5)”: median about -0.04, highest 2% from about 0.36 on). The list shows a part of the results.

target: T1, Hmlalpha2 (UniProt P0CY09); test: PBM E-score (8-mer binding enrichment) (E-score (-0.5 to 0.5)); higher = stronger / more preferred TF binding; most listed sequences are background and not binding sites; conditions: protein concentration: 200 nM; construct: GST-full length
T1 sequence: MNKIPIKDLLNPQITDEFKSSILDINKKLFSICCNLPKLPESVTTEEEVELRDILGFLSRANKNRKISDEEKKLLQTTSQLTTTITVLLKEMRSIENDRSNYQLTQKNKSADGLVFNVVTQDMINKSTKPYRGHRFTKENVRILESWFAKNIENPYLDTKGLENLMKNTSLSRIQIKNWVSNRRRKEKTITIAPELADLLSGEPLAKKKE
Outline: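 Full-length yeast transcription factors or their DNA-binding domains, GST-tagged and expressed with PURExpress, were applied at about 100-200 nM to universal all-10-mer Agilent arrays. These arrays had been made double-stranded by primer extension on fresh or once-stripped slides. Detection used fluorescent anti-GST, normalisation used masliner, and E-scores for ungapped eight-base words pooled with reverse complements came from the Universal PBM Analysis Suite.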

Sequence | PBM E-score
TCTCAAGA | -0.189
GTCTTGGA | -0.0752
CGTATGGC | 0.0244
GGCCCGGA | -0.324
AATAGAGC | -0.00245
AAGAGTAC | 0.0432
CCGCGCCC | -0.312
AGGCCGGC | -0.0897
CCCGTTAG | -0.328
ATATGAAT | -0.0472
ACGCAAAC | 0.125
CCCGACAG | -0.191
ATTACGAA | 0.289
ACCCCAGC | -0.0667
CGGCATAG | -0.0139
CCCATCAG | -0.268
TATTTTAA | 0.198
ATACGTGA | 0.208
CCTCGGTA | -0.353
ATGTCTAG | 0.215
CCCAGCCA | -0.222
ACGTCTTC | 0.00621
CGCGTTAG | 0.3
ACCTATGC | -0.0222
ATGAACTA | 0.147

Sequence | PBM E-score
AGGTGCTA | 0.04
GATGGTGC | -0.269
TCCGGAGA | -0.243
ACCAACTA | 0.151
CCACCTAG | -0.146
CATCATCG | -0.156
AAGACCGC | -0.103
ATCTGACC | 0.00247
ATTTACGA | 0.236
GAGTGATC | -0.0409
GCTGGGCA | -0.0146
TAGGCAGA | -0.0564
AGGTCCTC | -0.168
AGCGTGAA | -0.0458
ACCCTTCT | -0.231
TCCGCTAA | -0.228
CGCCGTCA | -0.136
CGCTGTAC | 0.135
ACATGGGC | 0.342
CACGGAAG | 0.124
GAGCGCGA | -0.0347
GCTGCTCC | -0.204
ATGACTTA | -0.0245
AACGTAGC | 0.178
CTGTAGAC | 0.104

Sequence | PBM E-score
ATACTCGA | 0.0274
CGCGCGCG | 0.0389
TCGCTGCA | 0.0487
CTGGATTA | 0.0226
TTACACAA | 0.478
CGCCGTGC | -0.00367
TCGATCGA | -0.0811
ACATTTAG | 0.136
AATCCTGG | -0.0758
GCTCGCGA | -0.065
GATAGGTA | 0.0736
AAACCCTT | 0.12
CATCGCCA | -0.122
GATATCTA | -0.00449
AGCGTTAT | 0.0624
ACGATGTC | 0.0103
AACTGGCC | -0.144
CCAAGATA | 0.0874
CATGCCAG | -0.0888
CGCTTAGA | -0.218
GTTCTCTA | 0.148
GAAGGTGC | -0.29
GATACAGA | -0.0603
CGGAGCCG | -0.194
CGGTTGCA | -0.244

Sequence | PBM E-score
ACGAATCG | -0.0213
AGCGAACG | -0.207
CGTTTCTA | 0.137
ATTTCGCC | -0.104
GATACCTA | 0.0911
ATCATGAG | 0.0487
AGCTACAC | 0.319
CTTCTCGC | -0.28
CGGCTGAC | -0.0987
TACTAGCA | 0.212
AGTGTTTG | 0.124
TCCAGTAA | 0.00452
CCCACGAA | -0.102
CTTAGGAC | -0.0281
CCCATGCC | -0.188
ACGGTCAC | -0.196
AACACCTA | 0.0399
CACGCAAC | 0.291
CAGCAGCC | -0.0508
CGTACCAC | -0.0795
GCTACCCC | -0.226
CAGAAGGG | -0.171
CCGCCAGA | -0.00086
ACGCCACG | 0.0296
ATCCGCCC | -0.281

Sequence | PBM E-score
GACACACA | 0.211
CGCGCGAC | -0.109
ACACGCAC | 0.382
ACACTGTG | 0.184
AAAGGGGA | -0.337
TCCGAACA | -0.0774
AGTGACCA | -0.21
ATATATTA | 0.222
GTGAACAC | 0.252
GGCGCGAA | -0.0217
AGTAAGTG | -0.043
TCTTAGCA | -0.0729
TCGTTAGA | -0.122
CTGTTGGC | -0.279
ACGAGTGA | -0.00913
ACAACATG | 0.451
ATGCGGAG | -0.164
AGTTCTAT | -0.119
ACACCTAT | 0.0293
TGTTAGAA | 0.334
GGTTTCAC | 0.083
GTAACTTA | 0.214
GTATAAAA | 0.282
CATCCCGA | -0.078
GCCTCTCA | -0.335

Sequence | PBM E-score
GGCTGGGA | -0.185
CCCAGGCA | -0.219
AACCTCTC | -0.275
AGACGTAC | 0.0364
AACGGCCG | -0.129
CGATACTC | -0.14
CCGTGAGG | -0.356
GTATGTAA | 0.477
GACCGGTC | -0.12
GACCTTCC | -0.156
ACACGGAC | 0.289
CACAATTA | 0.203
CCCGTAAA | 0.00577
CATATTAG | 0.0749
AGGCTCCA | -0.158
ACATGGGA | 0.33
GGCTTGTA | 0.261
ATTCCTGG | -0.23
GCGGCCAA | -0.0877
ATTACTAG | 0.184
GAAGGGGA | -0.0559
TACCCAGA | -0.0715
CCGATCAG | -0.192
CACGCGTG | 0.374
ATCGGGAA | -0.0774

Sequence | PBM E-score
CGTAGTTA | 0.269
AACCGTAC | -0.0109
CCCCGTTC | -0.361
CACCGAAC | -0.113
ACGTTAAT | 0.304
GTAATCAC | 0.257
AGCGCACA | -0.14
GATAAGCC | -0.323
ACCCACCG | -0.218
CCGCTCCA | -0.274
ATTCCACC | 0.0297
ACTGACAC | 0.122
AAGGGAAT | -0.16
GAGCCGAA | -0.227
TGGCGTAA | 0.108
CCTCAAGG | -0.235
AGGCGTGA | -0.155
CAAGGCAG | -0.0498
AAAGAGGC | -0.323
CGATCCAC | 0.0851
ATGCAGGC | -0.118
TTCCACAA | 0.0807
